Laboratory results: PubChem BioAssay (Tox21)
Where “and” joins values, the source holds several entries; their conditions need not be identical. Equal entries are not always repeated. The inconclusive results got no clear call from the source; some entries with a clear call stand among them for comparison. For some of these results: Potencies beside an inconclusive call are fits to weak or partial responses and may not hold up. Some structures have more than one record in an assay (separate samples or runs), and their calls can disagree. Calls of active or inactive are those of the source. Unless noted, calls come from the whole dose curve; as a rule, active = well fitted curve in the direction sought with a large enough effect in the repeat runs; inconclusive = weak or mixed curves; inactive = no such curve, though single readings can be large; an effect the other way counts as inactive or inconclusive.

How the values were obtained:
[1] = qHTS assay to identify small molecule antagonists of the TGF-beta/Smad signaling pathway (AID 1346924; active = well fitted inhibition curve with a large enough effect in the signal ratio in the repeat runs, not every such curve was filed as active; inconclusive = weak or mixed curves; the % refers to the signal ratio); conditions: SBE-bla HEK293T, TGF-beta/Smad reporter, beta-lactamase ratio; activity, negative = inhibition: at 76.8 µM (top of the series) unless noted
In short: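 SBE-bla HEK 293T cells were plated overnight, then received compound in DMSO plus TGF-beta1 (added as a 0.25 ng/mL solution) and were incubated 5 h at 37 C. Beta-lactamase reporter activity was read after 2 h at room temperature with LiveBLAzer B/G FRET substrate (ex 405, em 460/530 nm).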

[2] = Human pregnane X receptor (PXR) small molecule agonists, qHTS cell viability counter screen (AID 1346977); note: nearly all actives have a fitted effect of over 50% in size
In short: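 PXR-Luc HepG2 cells (2,000/well, 5% charcoal-stripped FBS) preincubated 5 hr, then exposed to compounds 24 hr at 37 C. Viability read in the same wells by CellTiter-Fluor fluorescence, reagent added at 23 hr, 1 hr incubation.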

[3] = Caspase-3/7 induction in CHO-K1 cells by small molecules, qHTS cell viability counter screen (AID 1346979); note: nearly all actives have a fitted effect of over 35% in size
In short: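 Wild-type CHO-K1 cells (1,500/well) treated with compound after 5 h plating; after 16 h at 37C, viability read as CellTiter-Fluor fluorescence following 1 h reagent incubation, in the same wells as the caspase read.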

[4] = molecular target: Cytochrome P450 2D6 (Homo sapiens) (UniProt P10635); assay: Cytochrome P450 Family 2 Subfamily D Member 6 (CYP2D6) small molecule antagonists: luciferase reporter qHTS assay (AID 1671196); note: nearly all actives have a fitted effect of over 50% in size
In short: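 Read-out is luminescence from luciferin formed by CYP2D6 turnover of a proluciferin substrate, recorded as relative luminescence units. Reactions ran 1 h at room temperature after NADPH regeneration solution was added.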

[5] = molecular target: Cytochrome P450 2C19 (Homo sapiens) (UniProt P33261); assay: Cytochrome P450 Family 2 Subfamily C Member 19 (CYP2C19) small molecule antagonists: luciferase reporter qHTS assay (AID 1671197); note: nearly all actives have a fitted effect of over 65% in size
In short: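 Compounds were tested on CYP2C19 activity via proluciferin conversion to luciferin. The 37C, 1 h reaction followed NADPH addition; detection reagent stopped it.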

[6] = molecular target: Cytochrome P450 2C9 (Homo sapiens) (UniProt P11712); assay: Cytochrome P450 Family 2 Subfamily C Member 9 (CYP2C9) small molecule antagonists: luciferase reporter qHTS assay (AID 1671198); note: nearly all actives have a fitted effect of over 50% in size
In short: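 CYP2C9 activity was measured with a P450-Glo proluciferin substrate. Enzyme–substrate mix was held with compound for 10 min at room temperature, then NADPH regeneration solution was added for 1 h at 37C. Luciferin product was read as luminescence.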

[7] = molecular target: Cytochrome P450 1A2 (Homo sapiens) (UniProt P05177); assay: Cytochrome P450 Family 1 Subfamily A Member 2 (CYP1A2) small molecule antagonists: luciferase reporter qHTS assay (AID 1671199); note: nearly all actives have a fitted effect of over 50% in size
In short: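 P450-Glo CYP1A2, 1536-well qHTS: enzyme/proluciferin substrate + cpd (DMSO), 10 min RT; NADPH regen, 1 h RT; detection reagent, 20 min; luminescence, RLU.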

[8] = molecular target: Voltage-gated inwardly rectifying potassium channel KCNH2 (Homo sapiens) (UniProt Q12809); assay: Human Ether-a-go-go-Related Gene (hERG) channel small molecule antagonists: fluorescence cell-based qHTS assay (AID 1671200); note: nearly all actives have a fitted effect of over 50% in size
In short: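 hERG-U2OS cells plated overnight at 37 C, loaded with FluxOR II dye 1 h at RT in dark; after 10 min, thallium stimulus added. Fluorescence (480/540 nm) read kinetically for 2 min at 1 s intervals.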

[9] = molecular target: Cytochrome P450 3A4 (Homo sapiens) (UniProt P08684); assay: Cytochrome P450 Family 3 Subfamily A Member 4 (CYP3A4) small molecule antagonists: luciferase reporter qHTS assay (AID 1671201); note: nearly all actives have a fitted effect of over 50% in size
In short: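 P450-Glo CYP3A4 luminescent assay: compounds preincubated 10 min at room temperature with enzyme and proluciferin substrate, NADPH regeneration added, 1 h room-temperature reaction, stopped with luciferin detection reagent; luminescence read after 20 min. Ketoconazole positive control.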

[10] = Caspase-3/7 induction in HepG2 cells by small molecules, qHTS assay (AID 1346978); note: nearly all actives have a fitted effect of over 15% in size
In short: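 Wild-type HepG2 cells (2,000/well) were settled 5 h at 37 C, 5% CO2, then exposed to compounds in DMSO for 17 h. Caspase-3/7 activity was read by luminescence 30 min after adding Caspase-Glo 3/7 reagent at room temperature.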

[11] = Caspase-3/7 induction in CHO-K1 cells by small molecules, qHTS assay (AID 1346980); note: nearly all actives have a fitted effect of over 15% in size
In short: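 Wild-type cells were seeded at 1,500 per well and settled 5 hr at 37 C, 5% CO2, then exposed to DMSO-dissolved compounds for 17 hr. Caspase-Glo 3/7 reagent was added, and luminescence was read after 30min at room temperature.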

[12] = Caspase-3/7 induction in HepG2 cells by small molecules, qHTS cell viability counter screen (AID 1346981); note: nearly all actives have a fitted effect of over 30% in size
In short: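 HepG2, WT, 2,000 cells/well; 5 hr pre-incubation 37 C/5% CO2; compound pin-transferred from DMSO; 16 hr exposure; CellTiter-Fluor, 1 hr; fluorescence read.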

[13] = molecular target: Nuclear receptor subfamily 1 group I member 2 (Homo sapiens) (UniProt O75469); assay: Human pregnane X receptor (PXR) small molecule agonists, qHTS assay (AID 1346982); note: nearly all actives have a fitted effect of over 35% in size
In short: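 Luciferase signal from ONE-Glo (30 min, room temperature) measured activation of hPXR-driven CYP3A4 reporter expression in PXR-Luc HepG2 cells treated with compounds for 24 hr at 37 C.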

[14] = molecular target: Nuclear receptor subfamily 1 group I member 2 (Rattus norvegicus) (UniProt Q9R1A7); assay: Rat pregnane X receptor (rPXR) activation by small molecules, qHTS assay (AID 1346983); conditions: rPXR luciferase reporter cells, One-Glo luminescence, 24 h; max activation: stronger effect = higher value; note: nearly all actives have a fitted effect of over 20% in size
In short: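 Cell-based rPXR luciferase reporter assay, 2,000 cells per well, rested 5hr at 37 C before compound addition in DMSO, then 24 hr at 37 C. One-Glo reagent was added and luminescence read after 30 min at room temperature.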
Potency is the fitted concentration of half-maximal effect; tags give direction and shape of the fitted curve or compound fluorescence and quenching.

Chain of UniProt P33261 (P33261 whole entry, looked up): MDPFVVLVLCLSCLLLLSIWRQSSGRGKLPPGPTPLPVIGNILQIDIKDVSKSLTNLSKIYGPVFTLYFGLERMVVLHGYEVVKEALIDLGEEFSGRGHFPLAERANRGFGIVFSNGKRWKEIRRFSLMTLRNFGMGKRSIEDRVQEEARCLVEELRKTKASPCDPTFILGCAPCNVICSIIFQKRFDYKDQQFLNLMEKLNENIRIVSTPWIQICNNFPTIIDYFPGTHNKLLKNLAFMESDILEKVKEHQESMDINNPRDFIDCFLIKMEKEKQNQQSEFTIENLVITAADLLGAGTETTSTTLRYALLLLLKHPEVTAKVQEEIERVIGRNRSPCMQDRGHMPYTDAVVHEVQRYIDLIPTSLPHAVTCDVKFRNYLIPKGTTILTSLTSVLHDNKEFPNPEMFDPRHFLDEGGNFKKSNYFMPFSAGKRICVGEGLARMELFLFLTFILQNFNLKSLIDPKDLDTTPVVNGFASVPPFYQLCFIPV
Chain of UniProt P10635 (P10635 whole entry, looked up): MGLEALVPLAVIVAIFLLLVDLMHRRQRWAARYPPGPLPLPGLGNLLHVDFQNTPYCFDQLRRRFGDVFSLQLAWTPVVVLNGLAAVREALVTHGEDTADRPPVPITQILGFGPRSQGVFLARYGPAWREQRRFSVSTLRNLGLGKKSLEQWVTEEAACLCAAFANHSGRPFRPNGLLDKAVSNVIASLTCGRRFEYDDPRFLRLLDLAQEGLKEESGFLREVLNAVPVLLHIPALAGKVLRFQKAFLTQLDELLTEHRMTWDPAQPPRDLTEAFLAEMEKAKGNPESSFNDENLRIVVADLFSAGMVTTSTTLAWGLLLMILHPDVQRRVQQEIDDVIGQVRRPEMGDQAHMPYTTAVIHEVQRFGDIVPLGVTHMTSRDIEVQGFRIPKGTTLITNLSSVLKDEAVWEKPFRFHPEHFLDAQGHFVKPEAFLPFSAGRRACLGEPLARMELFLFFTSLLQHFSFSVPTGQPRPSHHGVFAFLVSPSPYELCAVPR
Chain of UniProt P05177 (P05177 whole entry, looked up): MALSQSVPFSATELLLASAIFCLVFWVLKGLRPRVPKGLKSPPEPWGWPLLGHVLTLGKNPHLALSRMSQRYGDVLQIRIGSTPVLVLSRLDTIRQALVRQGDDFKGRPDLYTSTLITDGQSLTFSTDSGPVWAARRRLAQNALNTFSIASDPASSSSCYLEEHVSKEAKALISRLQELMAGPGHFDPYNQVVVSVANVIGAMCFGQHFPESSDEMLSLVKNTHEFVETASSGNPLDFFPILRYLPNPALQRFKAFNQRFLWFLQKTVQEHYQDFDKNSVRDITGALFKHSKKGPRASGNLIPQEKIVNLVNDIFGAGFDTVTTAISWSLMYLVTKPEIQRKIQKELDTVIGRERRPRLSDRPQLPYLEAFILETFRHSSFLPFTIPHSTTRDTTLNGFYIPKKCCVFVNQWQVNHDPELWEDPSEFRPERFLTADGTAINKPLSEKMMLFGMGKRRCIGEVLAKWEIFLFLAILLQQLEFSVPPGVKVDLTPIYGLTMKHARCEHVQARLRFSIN
Chain of UniProt P11712 (P11712 whole entry, looked up): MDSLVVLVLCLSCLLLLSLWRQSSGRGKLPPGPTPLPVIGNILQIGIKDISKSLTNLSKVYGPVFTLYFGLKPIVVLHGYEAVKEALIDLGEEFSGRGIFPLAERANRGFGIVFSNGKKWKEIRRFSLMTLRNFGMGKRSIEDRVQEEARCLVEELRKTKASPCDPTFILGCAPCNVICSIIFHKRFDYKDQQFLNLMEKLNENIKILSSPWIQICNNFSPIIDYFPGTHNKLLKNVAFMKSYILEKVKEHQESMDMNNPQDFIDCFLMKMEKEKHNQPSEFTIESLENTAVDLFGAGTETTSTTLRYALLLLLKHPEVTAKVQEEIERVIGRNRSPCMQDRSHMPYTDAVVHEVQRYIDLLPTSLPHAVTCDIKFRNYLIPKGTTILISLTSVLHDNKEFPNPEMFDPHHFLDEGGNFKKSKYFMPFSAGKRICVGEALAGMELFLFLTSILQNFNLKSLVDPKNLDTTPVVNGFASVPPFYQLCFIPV
Chain of UniProt Q12809 (Q12809 whole entry, looked up): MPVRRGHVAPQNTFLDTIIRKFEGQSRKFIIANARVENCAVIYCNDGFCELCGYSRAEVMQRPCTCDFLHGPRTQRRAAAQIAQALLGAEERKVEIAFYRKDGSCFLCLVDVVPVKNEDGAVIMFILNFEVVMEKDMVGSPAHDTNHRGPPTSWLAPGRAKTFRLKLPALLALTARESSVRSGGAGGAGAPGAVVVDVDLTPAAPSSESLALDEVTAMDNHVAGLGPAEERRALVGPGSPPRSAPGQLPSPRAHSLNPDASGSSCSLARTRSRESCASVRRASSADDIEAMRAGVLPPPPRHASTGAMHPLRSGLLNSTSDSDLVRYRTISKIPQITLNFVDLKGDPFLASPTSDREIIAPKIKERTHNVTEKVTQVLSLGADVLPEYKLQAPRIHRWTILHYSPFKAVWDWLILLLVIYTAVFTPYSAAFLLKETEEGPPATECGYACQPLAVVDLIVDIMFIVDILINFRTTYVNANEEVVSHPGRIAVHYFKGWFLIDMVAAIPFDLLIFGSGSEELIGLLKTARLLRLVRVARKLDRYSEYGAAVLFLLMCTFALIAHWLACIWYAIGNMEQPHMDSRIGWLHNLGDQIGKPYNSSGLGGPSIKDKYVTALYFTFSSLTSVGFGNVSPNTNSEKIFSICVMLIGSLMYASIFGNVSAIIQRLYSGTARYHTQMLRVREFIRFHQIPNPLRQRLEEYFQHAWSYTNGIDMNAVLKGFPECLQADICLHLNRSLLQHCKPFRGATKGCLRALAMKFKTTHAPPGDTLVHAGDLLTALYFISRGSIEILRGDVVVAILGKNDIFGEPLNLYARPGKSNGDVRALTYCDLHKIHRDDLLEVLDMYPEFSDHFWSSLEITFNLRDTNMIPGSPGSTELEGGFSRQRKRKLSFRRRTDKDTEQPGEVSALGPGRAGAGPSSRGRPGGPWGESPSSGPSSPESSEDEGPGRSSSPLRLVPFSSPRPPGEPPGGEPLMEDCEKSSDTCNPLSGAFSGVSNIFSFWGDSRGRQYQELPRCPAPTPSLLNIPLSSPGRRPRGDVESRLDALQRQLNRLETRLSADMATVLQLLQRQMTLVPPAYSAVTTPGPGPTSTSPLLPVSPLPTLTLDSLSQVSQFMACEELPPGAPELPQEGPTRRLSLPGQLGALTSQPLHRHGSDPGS
Chain of UniProt O75469 (O75469 whole entry, looked up): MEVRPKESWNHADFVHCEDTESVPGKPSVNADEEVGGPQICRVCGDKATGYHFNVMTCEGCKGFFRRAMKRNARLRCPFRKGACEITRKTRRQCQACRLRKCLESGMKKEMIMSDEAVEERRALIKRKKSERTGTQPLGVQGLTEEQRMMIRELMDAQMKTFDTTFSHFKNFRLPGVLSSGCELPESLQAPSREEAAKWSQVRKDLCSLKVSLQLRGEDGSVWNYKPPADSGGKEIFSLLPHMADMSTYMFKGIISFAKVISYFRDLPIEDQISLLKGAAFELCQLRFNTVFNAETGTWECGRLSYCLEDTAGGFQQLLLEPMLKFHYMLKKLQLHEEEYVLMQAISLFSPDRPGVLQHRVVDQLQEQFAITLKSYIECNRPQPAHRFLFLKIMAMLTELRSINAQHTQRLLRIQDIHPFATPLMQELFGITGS
Chain of UniProt P08684 (P08684 whole entry, looked up): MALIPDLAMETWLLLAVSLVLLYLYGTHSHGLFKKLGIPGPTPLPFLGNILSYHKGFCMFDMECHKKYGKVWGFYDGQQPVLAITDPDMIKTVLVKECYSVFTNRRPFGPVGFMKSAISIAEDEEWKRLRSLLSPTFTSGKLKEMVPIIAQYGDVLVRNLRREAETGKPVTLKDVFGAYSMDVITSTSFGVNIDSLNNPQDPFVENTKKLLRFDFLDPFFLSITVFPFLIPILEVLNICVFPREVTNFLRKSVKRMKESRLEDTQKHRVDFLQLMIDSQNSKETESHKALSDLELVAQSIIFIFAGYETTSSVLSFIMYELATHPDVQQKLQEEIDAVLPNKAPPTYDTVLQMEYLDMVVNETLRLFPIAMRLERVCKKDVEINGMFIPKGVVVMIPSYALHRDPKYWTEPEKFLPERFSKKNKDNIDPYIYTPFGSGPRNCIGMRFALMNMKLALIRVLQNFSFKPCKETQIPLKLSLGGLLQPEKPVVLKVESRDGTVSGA
Chain of UniProt Q9R1A7 (Q9R1A7 whole entry, looked up): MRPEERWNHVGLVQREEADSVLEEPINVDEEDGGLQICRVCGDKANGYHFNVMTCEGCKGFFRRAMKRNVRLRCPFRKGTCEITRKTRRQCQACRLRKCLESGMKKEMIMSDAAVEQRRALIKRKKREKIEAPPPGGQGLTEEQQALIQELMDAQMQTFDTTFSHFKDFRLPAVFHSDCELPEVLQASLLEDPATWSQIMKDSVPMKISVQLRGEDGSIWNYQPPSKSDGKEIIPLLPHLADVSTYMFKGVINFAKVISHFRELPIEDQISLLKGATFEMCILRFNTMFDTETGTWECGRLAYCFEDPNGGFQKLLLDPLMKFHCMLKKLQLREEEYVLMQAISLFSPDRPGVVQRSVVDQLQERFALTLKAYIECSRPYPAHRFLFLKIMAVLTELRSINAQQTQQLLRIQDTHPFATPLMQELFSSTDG

OC1CCCCCCCCCCC1
activity, negative = inhibition [1]: inconclusive: 5.6% | Potency [2]: inactive | Potency [3]: inconclusive: 77.7 µM [cytotoxic, single point] | Potency [4]: inactive | Potency [5]: inconclusive: 89.4 µM [inhibitor, single point] | Potency [6]: inactive and inconclusive: 63.3 µM [inhibitor] | Potency [7]: inconclusive: 28.5 µM [inhibitor, partial curve] | Potency [8]: inconclusive: 34.7 µM [inhibitor, partial curve] | Potency [9]: inconclusive: 71.7 µM [inhibitor, partial curve] and inconclusive: 71 µM [inhibitor]

CCCCN1C(=O)[C@@H]([C@H](O)C2CCCCC2)NC(=O)C12CCN(Cc1ccc(Oc3ccc(C(=O)O)cc3)cc1)CC2
Potency [1]: inconclusive: 3.89 µM [fluorescent, full curve] | Potency [2]: inconclusive: 43.3 µM [cytotoxic, partial curve] | Potency [10]: inconclusive: 48.6 µM [activator, partial curve] | Potency [5]: inconclusive: 89.4 µM [inhibitor, single point] | Potency [6]: inactive

c1cnc2c(c1)ccc1cccnc12
activity, negative = inhibition [1]: inconclusive: -9.9% and inconclusive: 2.42% and inconclusive: 7.49% | Potency [2]: inconclusive: 864 nM [cytotoxic, full curve] and inconclusive: 3.44 µM [cytotoxic, full curve] | Potency [11]: active: 978 nM and active: 1.37 µM | Potency [12]: inconclusive: 69.2 µM [cytotoxic, single point] and inconclusive: 17.2 µM [cytotoxic, partial curve, poor fit] | Potency [4]: inconclusive: 50.7 µM [inhibitor, partial curve, poor fit] and inconclusive: 39.9 µM [inhibitor, partial curve] and inconclusive: 63.3 µM [inhibitor, partial curve] | Potency [5]: active: 10.1 µM and active: 8.94 µM and active: 10 µM | Potency [6]: inconclusive: 5.69 µM [inhibitor, full curve] and inconclusive: 7.96 µM [inhibitor, full curve]

COC(=O)c1nc(Cl)c(Cl)nc1N
Potency [1]: inconclusive: 15.1 µM [fluorescent, partial curve] | Potency [2]: inconclusive: 33.5 µM [cytotoxic, single point] | Potency [3]: active: 8.41 µM | Potency [12]: inconclusive: 33.5 µM [cytotoxic] | Potency [13]: active: 10.6 µM

CCO[C@@H]1O[C@H](C(COCc2ccccc2)OCc2ccccc2)[C@H](OCc2ccccc2)[C@H]1O (stereo not given in full)
activity, negative = inhibition [1]: inconclusive: 0.242% [at 35.3 µM] | Potency [2]: inconclusive: 33.5 µM [cytotoxic, single point] | Potency [3]: active: 29.8 µM | Potency [12]: inconclusive: 33.5 µM [cytotoxic, single point] | Potency [14]: inconclusive: 11.2 µM [activator, partial curve, poor fit]

CCCCCCCCCCCCCCCCCCOS(=O)(=O)O
activity, negative = inhibition [1]: inconclusive: 0.544% | Potency [2]: inconclusive: 68.6 µM [cytotoxic, single point] | Potency [3]: inconclusive: 68.6 µM [cytotoxic] | Potency [13]: inconclusive: 61.1 µM [activator, partial curve, poor fit] | Potency [4]: inactive | Potency [5]: inconclusive: 79.6 µM [inhibitor, single point] | Potency [6]: inconclusive: 28.3 µM [inhibitor, full curve] | Potency [7]: inconclusive: 71 µM [inhibitor, partial curve] | Potency [8]: inactive

C#C[C@]1(OC(C)=O)CC[C@H]2[C@@H]3CCC4=C/C(=N/O)CC[C@@H]4[C@H]3CC[C@@]21CC
activity, negative = inhibition [1]: inconclusive: -15.3% [at 35.3 µM] | Potency [2]: inconclusive: 33.5 µM [cytotoxic, single point] | Potency [3]: inconclusive: 33.5 µM [cytotoxic, single point] | Potency [14]: inconclusive: 14.1 µM [activator, partial curve] | Potency [7]: inactive

C=CC(=O)Nc1cc2c(Nc3ccc(F)c(Cl)c3)ncnc2cc1OCCCN1CCOCC1
activity, negative = inhibition [1]: inconclusive: 0.429% [at 35.3 µM] | Potency [2]: inconclusive: 5.31 µM [cytotoxic, full curve] | Potency [10]: inconclusive: 11.9 µM [activator] | Potency [12]: active: 5.96 µM | Potency [4]: inconclusive: 11 µM [inhibitor, full curve] | Potency [6]: inconclusive: 9.77 µM [inhibitor, full curve, poor fit]

C[C@H](CCC(=O)O)[C@H]1CC[C@H]2[C@@H]3CC[C@@H]4C[C@H](O)CC[C@]4(C)[C@H]3C[C@H](O)[C@]12C
Potency [1]: inconclusive: 49.1 µM [fluorescent, partial curve] | Potency [2]: inactive | Potency [3]: inconclusive: 68.8 µM [cytotoxic] | Potency [12]: active: 54.6 µM
